Source: PubChem BioAssay AID588453 (National Center for Advancing Translational Sciences (NCATS), 2011)
“And” between values parts separate entries of the source, which are not always exact repeats. Identical values can stand only once. The campaign covered roughly 390,000 compounds. About 4,000 (1%) were called active. Inconclusive means that the source gave no clear call. Such entries were picked first, then a sample of the others. Calls come from the whole dose curve; as a rule, active = well fitted inhibition curve with a large enough effect; inconclusive = small, poorly fitted or top-dose-only effect; inactive = no such curve, though single readings can be large or run the other way. Where the call is inconclusive, the potency comes from a doubtful curve fit.

What follows are molecules tested against Thioredoxin reductase 1, cytoplasmic (Rattus norvegicus) (UniProt O89049) (assay: qHTS Assay for Inhibitors of Mammalian Selenoprotein Thioredoxin Reductase 1 (TrxR1): qHTS). Settings: recombinant rTrxR1, NADPH fluorescence consumption, selenite substrate; series mostly up to 114 µM.
Method in brief: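 Rat TrxR1 (90 nM in the dispensed reagent) was pre-reduced with 400 uM NADPH for 5 min at room temperature, then incubated with compound for 15 min. After 400 uM selenite was added, NADPH fluorescence (Ex 340/Em 450 nm) was followed for 8 min.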
Note: nearly all actives have a fitted effect of over 65% in size.
Potency is the fitted concentration of half-maximal effect; tags give direction and shape of the fitted curve.

Chain of UniProt O89049 (O89049 whole entry, looked up): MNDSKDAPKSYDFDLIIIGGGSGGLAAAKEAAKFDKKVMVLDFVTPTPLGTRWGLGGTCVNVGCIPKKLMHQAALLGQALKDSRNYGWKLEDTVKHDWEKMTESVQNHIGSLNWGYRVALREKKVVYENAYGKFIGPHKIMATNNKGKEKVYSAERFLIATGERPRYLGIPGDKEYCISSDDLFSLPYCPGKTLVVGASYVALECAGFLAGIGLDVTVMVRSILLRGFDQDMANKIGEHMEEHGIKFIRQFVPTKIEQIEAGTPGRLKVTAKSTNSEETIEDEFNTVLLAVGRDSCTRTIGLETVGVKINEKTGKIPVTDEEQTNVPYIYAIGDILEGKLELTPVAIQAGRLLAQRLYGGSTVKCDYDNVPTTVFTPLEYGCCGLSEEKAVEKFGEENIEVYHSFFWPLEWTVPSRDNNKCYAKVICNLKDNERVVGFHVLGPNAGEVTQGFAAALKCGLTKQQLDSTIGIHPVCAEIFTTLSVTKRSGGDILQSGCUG

Compound	Potency
O=C(Cn1ncc(Cl)c(Cl)c1=O)Nc1ccc2c(c1)OCO2	inconclusive: 39.8 µM [inhibitor, partial curve]
CO[C@@]1(NC(=O)CSCC#N)C(=O)N2C(C(=O)O)=C(CSc3nnnn3C)CS[C@@H]21	inconclusive: 15 µM [inhibitor, partial curve] and inconclusive: 26.7 µM [inhibitor, partial curve]
O=C(/C=C/c1ccco1)NC(=S)Nc1cc(-c2nc3ccccc3s2)ccc1Cl	active: 50.1 µM
COc1ccc(C2=C(C=C(C#N)C#N)C(c3ccccc3C)c3ccccc3O2)cc1OC (stereo not drawn)	inactive
CCOC(=O)/C=C1\CN(C(C)c2ccccc2)S(=O)(=O)c2ccccc21 (stereo not drawn)	inconclusive: 44.7 µM [inhibitor, partial curve]
Cc1ccc(C)c(Nc2nc3ccccc3[nH]2)c1	inactive
Cc1nc2ccccc2c(=O)n1/N=C/c1cccs1	inconclusive: 89.1 µM [inhibitor, partial curve, poor fit]
O=C(CCS(=O)(=O)c1ccc(Br)cc1)Nc1ccc(Cl)cc1F	inconclusive: 35.5 µM [inhibitor, partial curve, poor fit]
Cc1ccc(-n2nnnc2CCl)cc1	active: 14.1 µM
CC(C)C1Nc2ccc(C(=O)O)cc2C2C=CCC21 (stereo not drawn)	inconclusive: 22.4 µM [inhibitor, single point]
CCCN1CCN(CCCNC(=O)c2cc3c(s2)-c2ccccc2OC3)CC1	inconclusive: 3.16 µM [inhibitor, full curve, poor fit] and inconclusive: 70.8 µM [inhibitor, single point]
S=C(Nc1ccc2cn[nH]c2c1)Nc1ccccc1Cl	inconclusive: 50.1 µM [inhibitor, single point]
Cc1nc2ccccn2c1/C(O)=C1\C(=O)C(=O)N(CCN2CCOCC2)C1c1cccnc1 (stereo not drawn)	inconclusive: 89.1 µM [inhibitor, single point]
COCCn1c(C)cc(O)c(C(c2ccccc2F)N2CCN(c3ccccc3)CC2)c1=O (stereo not drawn)	inconclusive: 11.2 µM [inhibitor, partial curve]
O=C(NC(=S)Nc1cccc(C(F)(F)F)c1)c1csnn1	inconclusive: 3.16 µM [inhibitor, partial curve, poor fit]
COc1ccc(-c2nc(CS(=O)CC(=O)NCc3ccc4c(c3)OCO4)c(C)o2)cc1 (stereo not drawn)	inactive
CCOc1ccc(C(=O)NC2C(=O)N3C(C(=O)O)=C(COC(C)=O)CSC23)cc1OCC (stereo not drawn)	active: 56.2 µM
O=[N+]([O-])c1ccc(-c2nc(-c3cccs3)c(-c3cccs3)[nH]2)cc1	inactive
COC(=O)c1ccccc1N(C)S(=O)(=O)c1cc2c3c(c1)CC(=O)N3CCC2	inactive
COc1ccc(OC)c(NC(=O)CCCN2C(=S)NC(C)(C)CC2C)c1 (stereo not drawn)	inconclusive: 89.1 µM [inhibitor, single point]
Cc1ccccc1CN1CCN(CC(=O)NCc2ccccn2)C1=O	inactive
O=C(NCc1ccco1)c1ccccc1F	inconclusive: 31.6 µM [inhibitor, single point]

Compound	Potency
CCCCCc1ccc(-c2ccc(/C=C/C(=O)O)cc2)nc1	inactive
O=C(O)COc1ccccc1/C=N/n1c(C2CCCCC2)n[nH]c1=S	inactive
O=C(/C=C/c1ccco1)N1CCN(c2ncccn2)CC1	active: 39.8 µM
O=C(CSc1nnc(-c2cccs2)n1CC1CCCO1)c1cc2ccccc2o1 (stereo not drawn)	inconclusive: 70.8 µM [inhibitor, single point]
COc1ccccc1/C=C/c1onc(C)c1S(=O)(=O)N1CCC(C(=O)N2CCC(C)CC2)CC1	inactive
Cc1ccc(NC(=O)c2cc(N3C(=O)C=CC3=O)ccc2N2CCOCC2)cc1Cl	active: 3.55 µM
Cc1cccn2c(=O)c3cc(C(=O)N4CC(C)CC(C)C4)sc3nc12 (stereo not drawn)	inconclusive: 89.1 µM [inhibitor, partial curve, poor fit]
COc1ccc(CCC(=O)N2CCCC(Nc3ccc(OC)cc3)C2)cc1 (stereo not drawn)	inconclusive: 89.1 µM [inhibitor, single point]
Cc1ccc(-n2nc(C)c3c(C)cc(=O)n(CC(=O)Nc4cc(Cl)ccc4C)c32)cc1	inactive
CC(C)C(OC(=O)c1cccs1)C(=O)NCc1ccco1 (stereo not drawn)	inconclusive: 11.2 µM [inhibitor, full curve, poor fit]
CN(c1ccccc1)S(=O)(=O)c1cccc(C(=O)NCCc2ccc(O)c(O)c2)c1	inconclusive: 14.1 µM [inhibitor, partial curve, poor fit]
Cc1c(C)n(CC(O)CN2CCCCCC2)c2ccccc12 (stereo not drawn)	inconclusive: 79.4 µM [inhibitor, single point]
CN1CCc2cccc3c2[C@H]1Cc1ccc(O)c(O)c1-3	active: 31.6 µM and active: 22.4 µM
CCC(NC(C)C)C(O)c1ccc(O)c(O)c1 (stereo not drawn)	inconclusive: 29.9 µM [inhibitor, partial curve, poor fit] and inconclusive: 79.4 µM [inhibitor, partial curve] and inconclusive: 37.7 µM [inhibitor, partial curve, poor fit]
O=C(OCc1ccccc1)N1CCC2CC1c1cc(-c3ccc(F)cc3)ccc12 (stereo not drawn)	inactive
CC(C)C[C@H](NC(=O)c1nc[nH]c1C(=O)N1CCN(c2ccccc2)CC1)C(=O)OC(C)(C)C	inactive
O=C(CCl)Nc1cc(SCC(O)CO)cc([N+](=O)[O-])c1 (stereo not drawn)	active: 5.62 µM
COC(=O)c1c(NC(C)=O)sc(C(=O)Nc2ccccc2F)c1C	inactive
O=C1CN(C(=O)COC(=O)c2ccc([N+](=O)[O-])o2)c2ccccc2N1	inconclusive: 56.2 µM [inhibitor, partial curve]
N#CC1=C(N)C(C#N)(C#N)C2(C(=O)Nc3ccccc32)C2CCCC=C12 (stereo not drawn)	active: 56.2 µM
CCOC(=O)N1CCN(CCC(=O)c2ccc(Cl)cc2)CC1	inconclusive: 0.891 µM [inhibitor, full curve, poor fit]
